Test results taken from the supplement of paper PMC10369915.
Some of the results follow. No stated cut-off is given here; in the data, active = 3.2 or more and inactive = the rest. Most of these values are background signal.

Columns and labels:
Experiment in all cases: enrichment score (SH2-bound / input frequency) (ratio); bacterial display of known human phosphotyrosine sites (pTyr-Var adds point mutants) read by sequencing; higher = stronger binding; tyrosines were phosphorylated by kinases first
Conditions in all cases: peptide library: pTyr-Var
SHP2 C-SH2 domain E139D = target: SHP2 C-SH2 domain E139D
[1] = target: SHP2 C-SH2 domain wild-type
SHP2 N-SH2 domain L43F = target: SHP2 N-SH2 domain L43F
SHP2 N-SH2 domain T42A = target: SHP2 N-SH2 domain T42A
SHP2 N-SH2 domain T52S = target: SHP2 N-SH2 domain T52S
[2] = target: SHP2 N-SH2 domain wild-type

Measured: enrichment score
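Further: displayed peptides selected on beads carrying the immobilized SH2 domain, with library peptides lacking any tyrosine serving as negative controls.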

B1: VANGL1_Y344_YF (peptide)
chain: SHNELYFEEAE
inactive: SHP2 C-SH2 domain E139D 0.515 | [1] 0.438 | SHP2 N-SH2 domain L43F 0.454 | SHP2 N-SH2 domain T42A 0.478 | SHP2 N-SH2 domain T52S 0.488 | [2] 0.693

B2: VANGL1_Y345 (peptide)
chain: HNELYYEEAEH
inactive: SHP2 C-SH2 domain E139D 0.515 | [1] 0.616 | SHP2 N-SH2 domain L43F 0.61 | SHP2 N-SH2 domain T42A 0.48 | SHP2 N-SH2 domain T52S 0.588 | [2] 0.763

B3: VAV3_Y141_D139N (peptide)
chain: NDENIYKGLPD
inactive: SHP2 C-SH2 domain E139D 0.931 | [1] 0.652 | SHP2 N-SH2 domain L43F 0.554 | SHP2 N-SH2 domain T42A 0.507 | SHP2 N-SH2 domain T52S 0.705 | [2] 0.688

B4: VAV3_Y842 (peptide)
chain: WFPSTYVEEDE
inactive: SHP2 C-SH2 domain E139D 1.37 | [1] 1.02 | SHP2 N-SH2 domain L43F 1.11 | SHP2 N-SH2 domain T42A 0.764 | SHP2 N-SH2 domain T52S 1.53 | [2] 1.13

B5: VAV3_Y842_S840Y_YF (peptide)
chain: WFPFTYVEEDE
inactive: SHP2 C-SH2 domain E139D 1.8 | [1] 1.57 | SHP2 N-SH2 domain T42A 2.12 | [2] 2.08
active: SHP2 N-SH2 domain L43F 3.74 | SHP2 N-SH2 domain T52S 4.79

B6: VCAM1_Y718_I716L (peptide)
chain: IGMLIYFARKA
inactive: SHP2 C-SH2 domain E139D 1.04 | [1] 0.928 | SHP2 N-SH2 domain L43F 0.792 | SHP2 N-SH2 domain T42A 0.932 | SHP2 N-SH2 domain T52S 1.03 | [2] 0.661

B7: VCP_Y203_L198W (peptide)
chain: WNEVGYDDIGG
inactive: SHP2 C-SH2 domain E139D 0.833 | [1] 0.635 | SHP2 N-SH2 domain L43F 0.859 | SHP2 N-SH2 domain T42A 0.626 | SHP2 N-SH2 domain T52S 0.86 | [2] 0.812

B8: VHL_Y112_G114S (peptide)
chain: RRIHSYRSHLW
inactive: SHP2 C-SH2 domain E139D 0.227 | [1] 0.219 | SHP2 N-SH2 domain L43F 0.325 | SHP2 N-SH2 domain T42A 0.302 | SHP2 N-SH2 domain T52S 0.159 | [2] 0.171

B9: VHL_Y112_H110Y (peptide)
chain: RRIYSYRGHLW
inactive: SHP2 C-SH2 domain E139D 0.269 | [1] 0.222 | SHP2 N-SH2 domain L43F 0.353 | SHP2 N-SH2 domain T42A 0.246 | SHP2 N-SH2 domain T52S 0.212 | [2] 0.231

B10: VHL_Y112_H115R (peptide)
chain: RRIHSYRGRLW
inactive: SHP2 C-SH2 domain E139D 0.21 | [1] 0.289 | SHP2 N-SH2 domain L43F 0.262 | SHP2 N-SH2 domain T42A 0.295 | SHP2 N-SH2 domain T52S 0.234 | [2] 0.237

B11: VHL_Y112_R107G (peptide)
chain: GRIHSYRGHLW
active: SHP2 C-SH2 domain E139D 4.94 | [1] 3.6 | SHP2 N-SH2 domain L43F 3.82 | SHP2 N-SH2 domain T42A 3.48 | SHP2 N-SH2 domain T52S 4.33 | [2] 3.86

B12: VHL_Y175_I180V (peptide)
chain: VKPENYRRLDV
inactive: SHP2 C-SH2 domain E139D 0.613 | [1] 0.578 | SHP2 N-SH2 domain L43F 0.548 | SHP2 N-SH2 domain T42A 0.607 | SHP2 N-SH2 domain T52S 0.547 | [2] 0.669

B13: VHL_Y175_L178P (peptide)
chain: VKPENYRRPDI
inactive: SHP2 C-SH2 domain E139D 0.674 | [1] 0.889 | SHP2 N-SH2 domain L43F 0.744 | SHP2 N-SH2 domain T42A 0.649 | SHP2 N-SH2 domain T52S 0.799 | [2] 0.871

B14: VHL_Y175_L178Q (peptide)
chain: VKPENYRRQDI
inactive: SHP2 C-SH2 domain E139D 0.668 | [1] 0.716 | SHP2 N-SH2 domain L43F 0.765 | SHP2 N-SH2 domain T42A 0.825 | SHP2 N-SH2 domain T52S 0.666 | [2] 0.697

B15: VHL_Y175_V170G (peptide)
chain: GKPENYRRLDI
inactive: SHP2 C-SH2 domain E139D 0.643 | [1] 0.711 | SHP2 N-SH2 domain L43F 0.636 | SHP2 N-SH2 domain T42A 0.485 | SHP2 N-SH2 domain T52S 0.579 | [2] 0.639

B16: VHL_Y185 (peptide)
chain: IVRSLYEDLED
inactive: SHP2 C-SH2 domain E139D 0.917 | [1] 0.891 | SHP2 N-SH2 domain L43F 0.839 | SHP2 N-SH2 domain T42A 0.927 | SHP2 N-SH2 domain T52S 0.747 | [2] 0.75

B17: VHL_Y185_L184R (peptide)
chain: IVRSRYEDLED
inactive: SHP2 C-SH2 domain E139D 0.247 | [1] 0.222 | SHP2 N-SH2 domain L43F 0.271 | SHP2 N-SH2 domain T42A 0.312 | SHP2 N-SH2 domain T52S 0.301 | [2] 0.387

B18: VHL_Y185_L188Q (peptide)
chain: IVRSLYEDQED
inactive: SHP2 C-SH2 domain E139D 0.87 | [1] 0.964 | SHP2 N-SH2 domain L43F 0.917 | SHP2 N-SH2 domain T42A 0.6 | SHP2 N-SH2 domain T52S 0.786 | [2] 0.734
